Some of the results follow.
test system: T1, C. trachomatis L2/434/Bu expressing GFP (CTL2-GFP); design: species or system HeLa; C. trachomatis total inclusion area by high-content imaging, normalised to DMSO; conditions: total inclusion area; 28.5 h, 10 µM; inhibitor
T1 construct: L2/434/Bu GFP intracellular growth in HeLa cells
How it was run: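 After bulk GFP and resorufin fluorescence reads, cells were fixed, stained with Hoechst and imaged by high-content microscopy. Inclusion area and number (GFP) stood in for chlamydial growth, nuclei count (Hoechst) for host cell viability. MICs were derived as for the bulk readout.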

Row | Structure (SMILES) | % of control remaining
1 | Nc1ccc(-n2c(-c3ccccc3)c3c(c2-c2ccc(Cl)cc2)C(=O)c2ccccc2C3=O)cc1 [CBK262695] | 101.441
2 | COc1ccccc1C(=O)N1CCC[C@@H](N)[C@@H]1c1ccccc1F [CBK283458] | 104.063
3 | COC(=O)c1ccc(S(N)(=O)=O)o1 [CBK113186] | 87.7173
4 | CS(=O)(=O)c1sc(C(=O)O)c2c1C=CCC2 [CBK005513] | 94.9564
5 | Oc1cc(C(F)(F)F)nc(N2CCc3ccccc3C2)n1 [CBK000344] | 80.726
6 | COc1cccc(C2CC(c3cccc(Cl)c3)n3nc(N)nc3N2)c1 (stereo not drawn) [CBK293966] | 103.001
7 | COc1ccc(CCN2CCC(Oc3nccnc3NS(C)(=O)=O)CC2)cc1OC [CBK084285] | 93.5405
8 | COc1cc(NC(=O)c2ccc3c(c2)C(=O)N(Cc2ccccc2)C3=O)c(C(=O)O)cc1OC [CBK266544] | 122.349
9 | CC(=O)NC(c1ccccn1)C1CCCN(C(=O)C2CCCCC2)C1 (stereo not drawn) [CBK285031] | 85.7809
10 | CN(C)c1ccccc1-c1cc(NCCc2ccccn2)ncn1 [CBK037189] | 111.188
11 | Cc1cc(C(F)F)nn1CC(=O)N1CCc2ncc(Cl)cc2C1 [CBK284853] | 68.0881
12 | O=C(COC(=O)c1ccc2c(c1)C(=O)N(c1cccc(Cl)c1)C2=O)c1ccc(Br)cc1 [CBK262324] | 126.595
13 | c1cc(-c2ccc(Nc3ccc(N4CCOCC4)cc3)nc2)cs1 [CBK036844] | 160.581
14 | O=C1CC(N2CCN(Cc3ccc4c(c3)OCO4)CC2)C(=O)N1c1ccc(Br)cc1 (stereo not drawn) [CBK074544] | 95.5875
15 | c1ccc(-c2nnc(CSc3nnc(-c4ccncc4)[nH]3)o2)cc1 [CBK269962] | 74.4809
16 | COc1cc(/C=N/n2c(S)nnc2-c2cccnc2)ccc1OCc1ccccc1 [CBK265307] | 119.174
17 | Cc1ccc(Cl)cc1Nc1nc2nc(C)c(NCC3CC3)cn2n1 [CBK008522] | 32.6352
18 | CCOc1ccc(NC(=O)COc2ccccc2/C=C/C(=O)O)cc1 [CBK286935] | 88.6037
19 | O=C(Nc1cnc(-c2cccc(OC(F)(F)F)c2)c(-c2cccnc2)n1)c1ccccn1 [CBK036837] | 117.91
20 | CCCn1ncc(CN2CCC3(CC2)CC(C(=O)O)N(C(C)=O)C3)c1C (stereo not drawn) [CBK306612] | 71.2923
21 | COc1cccc(N2CCN(c3cc4n[nH]c(=O)n4cn3)CC2)c1 [CBK300511] | 82.6237
22 | CC(C)(C)C(=O)N[C@H]1C[C@@H](Cc2cc(CN3CCOCC3)on2)C1(C)C [CBK289247] | 94.3064
23 | CCC(CN1CCOCC1)n1cncc1-c1[nH]c2ccccc2c1C (stereo not drawn) [CBK281800] | 105.852
24 | CN1C(=O)C(CC(=O)NCCCc2ccc(F)cc2)c2ccccc21 (stereo not drawn) [CBK282474] | 99.6696
25 | Cc1cc(NC(=O)C2COc3ccccc3O2)c2ccccc2n1 (stereo not drawn) [CBK115871] | 109.435
26 | C=Cn1ncc(CN2CCC3(O)CCCCC3C2)c1C (stereo not drawn) [CBK283302] | 108.817

Row | Structure (SMILES) | % of control remaining
27 | Cc1cc(/C=C\c2nc(O)c([N+](=O)[O-])c(=O)[nH]2)c(C)n1-c1ccc(C(=O)O)cc1 [CBK267334] | 127.035
28 | O=C(O)c1ccc(N2CCN(CCO)CC2)c([N+](=O)[O-])c1 [CBK264911C] | 115.585
29 | CCCC/C=C/c1cncc(N2CCN(c3ccccn3)CC2)n1 [CBK037276] | 77.6906
30 | Cc1ccc(C2=CCN(CC(=O)Nc3ncc(C)s3)CC2)o1 [CBK283383] | 117.118
31 | COc1ccc2[nH]c3c(c2c1)CCN(C=O)C31CCCN(CCC#N)C1 (stereo not drawn) [CBK039445] | 97.0136
32 | COC(=O)c1ccc(N2C(=O)CC(SCCc3nc4ccccc4[nH]3)C2=O)cc1 (stereo not drawn) [CBK267188] | 116.615
33 | Cc1ccc(Oc2ccc([N+](=O)[O-])cc2)c(Br)c1 [CBK002832] | 104.831
34 | O=C(O)C1CC1C(=O)N1CC2(CCCC2)c2c(F)cccc21 (stereo not drawn) [CBK306360] | 49.7783
35 | O=S(=O)(NC[C@H]1C[C@@H]2CC[N@]1C[C@@H]2CN1CCOCC1)c1ccc(Cl)cc1 [CBK288762] | 119.772
36 | Cn1c(=O)c2c(nc(Nc3ccc(Cl)cc3Cl)n2CC(=O)O)n(C)c1=O [CBK286792] | 114.92
37 | CCc1nn2c(=O)cc(CNc3ccccc3CN(C)C(C)=O)nc2s1 [CBK305604] | 25.4114
38 | Cc1nn(CC(=O)OC2CCCCC2)c(=O)c2cc3ccsc3n12 [CBK284058] | 89.5193
39 | CCOC(=O)Nc1ccc2c(c1)N(C(=O)CN1CCOCC1)c1ccccc1CC2 [CBK261286C] | 91.3672
40 | CCn1cc(CN2CCN(C(=O)c3csc(C(C)C)c3)CC2)cn1 [CBK282044] | 90.0041
41 | C=CCNc1nccnc1-c1cc(OC)c(OC)c(OC)c1 [CBK036872] | 83.1845
42 | Cc1c(C(=O)Nc2ccc(Cl)cc2)sc2c1C(c1cccnc1)CC(=O)N2 (stereo not drawn) [CBK288233] | 39.8892
43 | O=C(Cn1cc(-c2ccc(CN3CCCCC3)cc2)nn1)NCc1ccc(C2CCC2)cc1 [CBK167547] | 94.7475
44 | CC1=C[C@@H](CO)[C@H](C(C)C)C[C@H]1CC(=O)N1CCN(CCO)CC1 [CBK289217] | 111.423
45 | CNCc1cc(Br)c(OCC(=O)Nc2ccccc2OC)c(OC)c1 [CBK107772] | 78.6016
46 | c1cc(-c2cnc(N3CCOCC3)c3nccn23)c2cccnc2c1 [CBK091270] | 83.2036
47 | O=C(Nc1cc(Cl)ccc1C(=O)NC1CCC(O)CC1)c1cccs1 (stereo not drawn) [CBK306186] | 47.5048
48 | O=c1c([N+](=O)[O-])c(O)c2ccccc2n1Cc1ccccc1 [CBK291182] | 108.206
49 | CC1Cc2cc(-c3cncn3CC(=O)NC(C)(C)C)ccc2N1C (stereo not drawn) [CBK281699] | 97.1271
50 | C=C(C)Cn1c(-c2ccc(N)cc2)nc2ccccc21 [CBK287581] | 77.9898
51 | C[C@@H](Nc1cncc(-c2ccccc2CO)n1)c1ccccc1 [CBK065543] | 122.145
52 | COc1nc2ccn(CC(O)CO)c(=O)c2cc1C#N (stereo not drawn) [CBK307251] | 85.1109

Row | Structure (SMILES) | % of control remaining
53 | Cc1cc(C)n(-c2ccnc(NCCc3cccnc3)n2)n1 [CBK288615] | 58.2805
54 | Cc1ccc(C(=O)N2CCC(c3nc4ccccc4s3)CC2)cc1NS(C)(=O)=O [CBK254629] | 111.283
55 | Fc1ccc(-c2cncc(Nc3cccc(C(F)(F)F)c3)n2)c(F)c1 [CBK065763] | 150.184
56 | Cn1c(SCc2cccc3ccccc23)nnc1-c1ccc(NC(=O)/C=C/c2ccccc2)cc1 [CBK265034] | 110.711
57 | O=C(NCCCN1CCOCC1)C1CCCN1S(=O)(=O)c1ccc(Cl)cc1 (stereo not drawn) [CBK269944] | 93.5872
58 | CC1CCN(CCNC(=O)CCc2nc3ccc(Cl)cc3[nH]2)CC1 [CBK281599] | 86.7354
59 | COc1ccccc1CN1CCC(Cc2ccccc2-c2ccccc2)(C(N)=O)CC1 [CBK285719] | 106.935
60 | O=[N+]([O-])c1ccc(NCCCNS(=O)(=O)c2ccc3ccccc3c2)c(Cl)c1 [CBK262006] | 100.028
61 | Cc1cc(=O)[nH]c(SCc2nc3ccccn3c2Br)n1 [CBK296063] | 103.807
62 | CCCC(=O)N1CCC(c2nc3ccc(F)cc3cc2N)CC1 [CBK284655] | 99.2749
63 | OC(CN1CCC(O)(c2cccc(C(F)(F)F)c2)CC1)c1ccccc1 (stereo not drawn) [CBK286324] | 79.1833
64 | COc1ccc(OCC(=O)Nc2ccc3c(c2)nc2n3CCN(Cc3ccccc3)C2)cc1 [CBK266989] | 108.78
65 | O=C(CCn1ccc2ccncc21)NCCc1c[nH]c2ccccc12 [CBK284760] | 58.2826
66 | COc1c(S(=O)(=O)N2CCN(Cc3ccc4c(c3)OCO4)CC2)ccc(Cl)c1Cl [CBK074423] | 86.0897
67 | O=S(=O)(c1cccc(C(F)(F)F)c1)N1CCN(Cc2ccc3c(c2)OCO3)CC1 [CBK074594] | 77.4547
68 | CCn1ncc(CN2CCN(C(=O)c3nn(C)cc3C(=O)O)CC2)c1C [CBK286870] | 104.206
69 | O=C1CC(c2cc(Br)ccc2F)c2scc(-c3ccccc3F)c2N1 (stereo not drawn) [CBK294440] | 92.7896
70 | O=C1CN(C(=O)NCc2ccc(F)cc2)CCN1 [CBK155869] | 106.835
71 | CCCN1CCC2CN(CCCC(=O)c3ccc(F)cc3)CCN2C1=O (stereo not drawn) [CBK024882C] | 58.7635
72 | O=C(CCN1C(=O)COc2ccccc21)Nc1ccnn1Cc1ccccc1Br [CBK296740] | 113.13
73 | Cc1ccc(CN2CCCN(C(=O)CCn3cnc4c(cnn4C)c3=O)CC2)cc1 [CBK297793] | 84.282
74 | O=C(C1CCN(Cc2ccc(F)cc2)CC1)N1CCN(C/C=C/c2ccccc2)CC1 [CBK264325G] | 79.1915
75 | COc1ccc(NCc2cc3sccc3n2C)cc1OC [CBK283486] | 111.914
76 | Cc1ccc(-c2cc(C(=O)Nc3ccc(S(N)(=O)=O)cc3)c3ccc(Cl)c(C)c3n2)cc1 [CBK267745] | 96.7995
77 | Cc1cnn(C2CCN(C(=O)NC(C)C3OCCc4sccc43)C2)c1 (stereo not drawn) [CBK304159] | 46.998
78 | Cc1noc(C)c1C(=O)Nc1sc2c(c1C(=O)NCc1ccco1)CCCCCC2 [CBK268112] | 106.621

Reference: publication PMC12040169 (PLOS Biology, 2025)
